Experimental data as given in US5332726A, “Antithrombotic peptides and pseudopeptides” (Rhone-Poulenc Rorer Pharmaceuticals Inc., priority 1992, dated 1994).
At least one structure is not confirmed: it was looked up by name or label, or the drawing left a doubt. Non-standard residues stand in square brackets, D forms with d. Residues, ends and D or L forms follow the SMILES beside them. Orn = NCCC[C@H](N)C(=O)O

How the values were obtained:
[1] = target: fixed activated platelets (Homo sapiens, UniProt P05106+P08514); assay: Platelet Aggregation Assay (fibrinogen-mediated aggregation of fixed-activated platelets); type: cell-based; details: human fibrinogen 250 μg/ml, read-out: Inhibition of Fibrinogen Mediated Platelet Aggregation IC50
Method: PLATELET AGGREGATION ASSAY
Preparation of Fixed-Activated Platelets
To the activated platelets is added paraformaldehyde to a final concentration of 0.50% and this incubated at room temperature for 30 minutes. The fixed activated platelets are then collected by centrifugation at 650×g for 15 minutes.
Platelet Aggregation Assay
The fixed activated platelets are incubated with a selected dose of the compound to be tested for platelet aggregation inhibition for one minute and aggregation initiated by addition of human fibrinogen to a final concentration of 250 μg/ml. A platelet aggregation profiler Model PAP-4 is used to record the platelet aggregation.

[2] = target: thrombin-stimulated platelets (Homo sapiens, UniProt P05106+P08514); assay: Fibrinogen-Binding Assay (125I-fibrinogen binding to platelets); details: 125I-fibrinogen 0.176 μmol/liter, read-out: Inhibition of 125I-Fibrinogen Binding to Platelets IC50
Method: Platelets are washed free of plasma constituents by the albumin density-gradient technique of Walsh, P. N., et al., Br. J. Haematol. […] After these additions, the final platelet count in the mixture is 1×10^11 /liter. After incubation for an additional 30 minutes at 22°-25° C., bound and free ligand are separated by centrifuging 50 μl of the mixture through 300 μl of 20% sucrose at 12,000×g for 4 minutes. The platelet pellet is then separated from the rest of the mixture to determine platelet-bound radioactivity. Nonspecific binding is measured in mixtures containing an excess of unlabeled ligand. […] The IC50 is derived by plotting residual fibrinogen binding against the logarithm of the sample compound's concentration.

Chain of fixed activated platelets (P08514 32-1039): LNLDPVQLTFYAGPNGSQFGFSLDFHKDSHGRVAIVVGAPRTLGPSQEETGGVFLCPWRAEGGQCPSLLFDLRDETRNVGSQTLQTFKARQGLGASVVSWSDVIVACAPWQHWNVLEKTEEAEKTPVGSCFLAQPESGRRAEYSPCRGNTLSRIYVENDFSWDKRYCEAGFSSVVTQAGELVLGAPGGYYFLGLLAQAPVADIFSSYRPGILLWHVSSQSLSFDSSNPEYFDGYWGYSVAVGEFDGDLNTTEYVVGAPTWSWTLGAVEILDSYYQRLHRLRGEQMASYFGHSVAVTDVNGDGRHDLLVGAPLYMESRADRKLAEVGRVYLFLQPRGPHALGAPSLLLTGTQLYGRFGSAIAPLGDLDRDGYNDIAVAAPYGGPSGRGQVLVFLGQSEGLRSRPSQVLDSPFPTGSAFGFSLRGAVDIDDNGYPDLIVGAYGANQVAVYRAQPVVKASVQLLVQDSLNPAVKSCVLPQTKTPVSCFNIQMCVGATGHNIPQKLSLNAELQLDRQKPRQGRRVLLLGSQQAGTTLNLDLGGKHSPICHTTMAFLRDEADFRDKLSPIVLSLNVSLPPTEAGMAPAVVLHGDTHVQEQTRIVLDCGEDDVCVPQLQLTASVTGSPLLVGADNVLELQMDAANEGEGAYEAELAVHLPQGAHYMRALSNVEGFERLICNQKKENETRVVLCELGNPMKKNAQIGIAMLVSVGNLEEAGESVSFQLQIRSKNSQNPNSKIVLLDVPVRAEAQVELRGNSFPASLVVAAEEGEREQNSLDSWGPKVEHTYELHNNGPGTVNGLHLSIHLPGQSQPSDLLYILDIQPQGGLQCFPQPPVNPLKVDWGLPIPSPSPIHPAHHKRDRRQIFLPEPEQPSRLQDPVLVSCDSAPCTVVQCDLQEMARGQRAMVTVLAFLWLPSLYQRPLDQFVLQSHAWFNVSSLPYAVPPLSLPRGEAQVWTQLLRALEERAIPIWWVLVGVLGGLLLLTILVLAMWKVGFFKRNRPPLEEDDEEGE
Chain of fixed activated platelets (P05106 27-788): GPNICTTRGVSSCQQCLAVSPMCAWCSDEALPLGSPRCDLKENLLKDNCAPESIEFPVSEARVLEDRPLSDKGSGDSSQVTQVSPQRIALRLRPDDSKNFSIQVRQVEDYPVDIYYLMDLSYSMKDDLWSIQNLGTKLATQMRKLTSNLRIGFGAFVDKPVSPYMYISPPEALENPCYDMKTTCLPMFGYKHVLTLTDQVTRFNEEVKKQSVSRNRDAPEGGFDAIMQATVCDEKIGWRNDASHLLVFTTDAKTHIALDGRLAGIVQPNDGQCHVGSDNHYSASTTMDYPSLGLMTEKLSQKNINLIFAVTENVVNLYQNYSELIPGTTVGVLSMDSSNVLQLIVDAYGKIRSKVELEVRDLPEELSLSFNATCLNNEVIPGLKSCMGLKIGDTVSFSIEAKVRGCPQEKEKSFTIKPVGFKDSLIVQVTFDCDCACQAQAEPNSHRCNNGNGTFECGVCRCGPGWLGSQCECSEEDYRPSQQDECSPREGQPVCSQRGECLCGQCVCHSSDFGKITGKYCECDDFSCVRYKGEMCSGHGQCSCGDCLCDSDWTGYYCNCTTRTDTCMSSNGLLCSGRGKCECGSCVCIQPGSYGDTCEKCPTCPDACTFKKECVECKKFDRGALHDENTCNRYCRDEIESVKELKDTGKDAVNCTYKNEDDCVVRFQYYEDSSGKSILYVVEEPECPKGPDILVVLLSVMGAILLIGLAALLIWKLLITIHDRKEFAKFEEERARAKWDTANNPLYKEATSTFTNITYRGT
Chain of thrombin-stimulated platelets (P08514 32-1039): as the sequence (P08514 32-1039) above
Chain of thrombin-stimulated platelets (P05106 27-788): as the sequence (P05106 27-788) above

IC50 [1] | IC50 [2] | SMILES
2800 nM | 1.25 µM | CC(C)[C@H](NC(=O)[C@H](CC(=O)O)NC(=O)CN(C)C(=O)CCCCCn1ccnc1)C(=O)O [6-(Imidazol-1-yl)-hexanoylsarcosyl-L-aspartyl]
> 25000 nM | > 200 µM | CC[C@H](C)[C@@H](CN[C@@H](CCCNC(=N)N)C(=O)O)NC(=O)[C@H](CC(=O)O)NC(=O)CCCCCCCCNC(=N)N [9-Guanidinononanoyl-L-aspartyl-β-homo-L-isoleucyl psi(CH2 NH)-L-arginine]
11200 nM | – | CCC(C)[C@H](CCCNC(=N)N)NC(=O)[C@H](CC(=O)O)NC(=O)CCCCCCCCNC(=N)N (stereo partly drawn) [9-Guanidinononanoyl-L-aspartyl-((S)-4-amino-4-sec-butylbutyl)guanidine]
> 100000 nM | – | CC(C)[C@H](NC(=O)[C@@H](N)CCCNC(=O)[C@@H](N)CCCNC(=N)N)C(=O)O [N-δ-(L-arginyl)-L-ornithyl-L-valine] (H-[Orn](Arg)-Val-OH)
2000 nM | 10.5 µM | CC(C)C[C@@H](CCCNC(=N)N)NC(=O)[C@H](CC(=O)O)NC(=O)CCCCCCCCNC(=N)N [(R)-4-[N-(9-Guanidinononanoyl-L-aspartyl)-amino]-4-isobutylbutylguanidine]
1900 nM | 1.25 µM | CCC(C)C[C@H](NC(=O)[C@H](CC(=O)O)NC(=O)CCCCCCCCNC(=N)N)C(=O)N[C@@H](CCCNC(=N)N)C(=O)O (stereo partly drawn) [9-Guanidinononanoyl-L-aspartyl-homo-L-isoleucyl-L-arginine]
5800 nM | 4.7 µM | CCC(C)C[C@@H](NC(=O)[C@H](CC(=O)O)NC(=O)CCCCCCCCNC(=N)N)C(=O)N[C@@H](CCCNC(=N)N)C(=O)O (stereo partly drawn) [9-Guanidinononanoyl-L-aspartyl-D-homoisoleucyl-L-arginine]
450 nM | 4.3 µM | CCC(C)C(CNC(=O)[C@H](CC(=O)O)NC(=O)CCCCCCCCNC(=N)N)C(=O)N[C@@H](CCCNC(=N)N)C(=O)O (stereo partly drawn) [N-(9-Guanidinononanoyl-L-aspartyl)-3-amino-2-sec-butyl propionic acid L-arginine amide]
3000 nM | 80 µM | Cc1nccn1CCCCCCCCC(=O)N[C@@H](CC(=O)O)C(=O)N[C@H](C(=O)O)C(C)C
